By IC50 is meant the dose at which the fit gives 50% viability; a fit beyond the top or the lowest dose is shown as a bound at that dose. AUC is the area under the same curve over the 256-fold range up to the top dose, as a fraction; it is 1 without any effect and falls as sensitivity rises. For some assays here: An inferred top dose is not printed in the source and was worked back from the curve model. For some assays here: Where an entry number is given, a second screen of the drug exists; the two often differ. Some results are limits rather than exact numbers.

This is an account of results in the supplement of paper PMC4967469.

Assay in all cases: Viability of human cancer cell lines after 72 h of drug (GDSC screen)
Compound in one assay: NCC(=O)Nc1ccc(-n2nc(C(F)(F)F)cc2-c2ccc3c(ccc4ccccc43)c2)cc1 [OSU-03012]
The conditions noted are these: top dose 16 µM; top dose inferred. The method, then:
(§1)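 Human cancer cell lines in 384-well plates, medium with 10% serum, drug for 72 h over a 256-fold dose range (nine 2-fold or five 4-fold steps up to the top dose). Adherent lines were fixed and stained with the nucleic acid dye Syto60, suspension lines read with resazurin; signal relative to control wells, capped at 0 and 100%. One two-parameter sigmoid per drug and line, fitted in a mixed model over all curves with the slope shared within a line.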

Compound in the next assay: C#Cc1cccc(Nc2ncnc3cc(OC)c(OCCCCCCC(=O)NO)cc23)c1 [CUDC-101]
The conditions noted are these: top dose 5.12 µM; top dose inferred. How it is done:
as §1

Compound in the next assay: Fc1cc(-c2ccnc(Nc3ccc(-n4cnc(N5CCOCC5)n4)cc3)n2)cc(N2CCOCC2)c1 [JNK-9L]
To be noted: top dose 5.12 µM; top dose inferred. The method, then: as §1

Compound in the next assay: OC[C@H](Cc1ccccc1)Nc1nc(Oc2ccc3c(c2)CCC3)nc2c1ncn2Cc1ccc(-c2ccccc2)cc1 [QS11]
To be noted: top dose 10.24 µM. How it is done: as §1

Compound in the next assay: O=c1[nH]cc(F)c(=O)[nH]1 [5-Fluorouracil]
To be noted: top dose 32 µM; top dose inferred. How it is done:
as §1

Compound in another assay: COc1cc(F)c(F)c(Nc2ccc(I)cc2F)c1NS(=O)(=O)C1(C[C@H](O)CO)CC1 [RDEA119]
The conditions noted are these: top dose 5 µM, top dose inferred. How it is done: as §1

Compound in another assay: CC(C)(C)c1cc(NC(=O)Nc2ccc(-c3cn4c(n3)sc3cc(OCCN5CCOCC5)ccc34)cc2)no1 [AC220]
To be noted: top dose 1.024 µM; top dose inferred. How it is done:
as §1

As for TE-11 (oesophagus, adherent), the AUC amounted to 0.76 with OSU-03012; 0.916 in the assay with CUDC-101; 0.596 with JNK-9L; 0.99 with QS11; 0.946 with 5-Fluorouracil; 0.884 with RDEA119 (screen: GDSC drug entry 1014). The AUC with RDEA119 (screen: GDSC drug entry 1526) came out at 0.936; in the assay with AC220, 0.99. Moreover, the half-inhibitory concentration (IC50) (usually the concentration at which inhibition is half-maximal) with OSU-03012 was 5.18 µM; in the assay with CUDC-101, over 5120 nM; with JNK-9L it was 573 nM; with QS11, over 10.2 µM; with 5-Fluorouracil, over 32 µM; with RDEA119 (screen: GDSC drug entry 1014), 4.61 µM. Moreover, the IC50 was over 5 µM with RDEA119 (screen: GDSC drug entry 1526) and over 1020 nM in the assay with AC220.
In the case of TE-12 (oesophagus, suspension), the AUC came out at 0.585 with OSU-03012; 0.911 in the assay with CUDC-101; 0.641 with JNK-9L; 0.923 in the assay with QS11; 0.877 with 5-Fluorouracil; 0.695 with RDEA119 (screen: GDSC drug entry 1014). In addition, the results for the AUC with RDEA119 (screen: GDSC drug entry 1526) and in the assay with AC220 were 0.861 and 0.983, respectively. Besides, the IC50 in the assay with OSU-03012 is 1.8 µM; with CUDC-101 it was over 5120 nM; with JNK-9L it was 857 nM; in the assay with QS11, over 10.2 µM; with 5-Fluorouracil, over 32 µM; with RDEA119 (screen: GDSC drug entry 1014) it was 1.25 µM. Besides, the half-inhibitory concentration (IC50) with RDEA119 (screen: GDSC drug entry 1526) is over 5 µM; with AC220, over 1020 nM.
In the case of TE-15 (oesophagus, suspension), the AUC amounted to 0.627 with OSU-03012; 0.304 with CUDC-101; 0.562 with JNK-9L; 0.92 with QS11; 0.748 in the assay with 5-Fluorouracil; 0.372 in the assay with RDEA119 (screen: GDSC drug entry 1014). In addition, the AUC with RDEA119 (screen: GDSC drug entry 1526) turned out to be 0.918; with AC220 it was 0.974. The half-maximal inhibitory concentration (IC50) in the assay with OSU-03012 was 2.36 µM; with CUDC-101, 83.5 nM; in the assay with JNK-9L, 484 nM; with QS11, over 10.2 µM; in the assay with 5-Fluorouracil it was 11.5 µM; with RDEA119 (screen: GDSC drug entry 1014) it was 0.132 µM. For the same cell line, the IC50 in the assay with RDEA119 (screen: GDSC drug entry 1526) is over 5 µM; in the assay with AC220, over 1020 nM.
Consider TGBC1TKB (biliary tract, adherent), for which the AUC with OSU-03012 amounted to 0.839; in the assay with CUDC-101 it was 0.625; in the assay with JNK-9L, 0.747; with QS11, 0.989; with 5-Fluorouracil, 0.98; with RDEA119 (screen: GDSC drug entry 1014) it was 0.87. The AUC with RDEA119 (screen: GDSC drug entry 1526) amounted to 0.906; with AC220 it was 0.989. The IC50 in the assay with OSU-03012 was 10.8 µM; with CUDC-101, 705 nM; in the assay with JNK-9L, 1630 nM; in the assay with QS11, over 10.2 µM; with 5-Fluorouracil, over 32 µM; with RDEA119 (screen: GDSC drug entry 1014) it was 4.62 µM. Moreover, the IC50 with RDEA119 (screen: GDSC drug entry 1526) was over 5 µM; with AC220, over 1020 nM.
For the cell line TGBC11TKB (stomach, adherent), the AUC with OSU-03012 came out at 0.87; with CUDC-101, 0.804; in the assay with JNK-9L, 0.711; in the assay with QS11 it was 0.953; with 5-Fluorouracil, 0.946; with RDEA119 (screen: GDSC drug entry 1014), 0.692. Further, the AUC stood at 0.876 with RDEA119 (screen: GDSC drug entry 1526) and 0.992 with AC220. Moreover, the IC50 with OSU-03012 is 11.9 µM; with CUDC-101, 2210 nM; in the assay with JNK-9L, 1160 nM; in the assay with QS11, over 10.2 µM; in the assay with 5-Fluorouracil, over 32 µM; with RDEA119 (screen: GDSC drug entry 1014), 1 µM. In addition, the IC50 with RDEA119 (screen: GDSC drug entry 1526) was 3.95 µM; with AC220, over 1020 nM.
As to TGBC24TKB (biliary tract, adherent), the AUC with OSU-03012 is 0.882; with CUDC-101 it was 0.654; in the assay with JNK-9L, 0.654; with QS11, 0.99; with 5-Fluorouracil, 0.981; with RDEA119 (screen: GDSC drug entry 1526) it was 0.852. In the assay with AC220, the AUC worked out at 0.933. In addition, the IC50 is 15.1 µM with OSU-03012; 831 nM in the assay with CUDC-101; 828 nM in the assay with JNK-9L; over 10.2 µM with QS11; over 32 µM with 5-Fluorouracil; 3.47 µM in the assay with RDEA119 (screen: GDSC drug entry 1526). The IC50 with AC220 is over 1020 nM.
As to TGW (neuroblastoma, adherent), the AUC came out at 0.788 with OSU-03012; 0.384 with CUDC-101; 0.748 in the assay with JNK-9L; 0.965 with QS11; 0.789 with 5-Fluorouracil; 0.899 with RDEA119 (screen: GDSC drug entry 1014). In addition, the AUC with RDEA119 (screen: GDSC drug entry 1526) amounted to 0.976; in the assay with AC220, 0.992. Further, the IC50 was 5.97 µM in the assay with OSU-03012; 161 nM with CUDC-101; 1450 nM with JNK-9L; over 10.2 µM in the assay with QS11; 12 µM with 5-Fluorouracil; 4.75 µM with RDEA119 (screen: GDSC drug entry 1014). For the same cell line, the values for the IC50 with RDEA119 (screen: GDSC drug entry 1526) and with AC220 were over 5 µM and over 1020 nM, respectively.
With TK (B-cell lymphoma, suspension), the AUC is 0.694 with OSU-03012; 0.458 with CUDC-101; 0.667 with JNK-9L; 0.89 with QS11; 0.78 with 5-Fluorouracil; 0.989 with RDEA119 (screen: GDSC drug entry 1014). Besides, the results for the AUC with RDEA119 (screen: GDSC drug entry 1526) and in the assay with AC220 were 0.976 and 0.989, respectively. Besides, the IC50 is 3.32 µM with OSU-03012; 249 nM with CUDC-101; 888 nM with JNK-9L; 9.99 µM with QS11; 11.9 µM with 5-Fluorouracil; over 5 µM in the assay with RDEA119 (screen: GDSC drug entry 1014). Besides, the IC50 with RDEA119 (screen: GDSC drug entry 1526) was over 5 µM; with AC220 it was over 1020 nM.
Take TMK-1 (stomach, adherent): the AUC was found to be 0.819 with OSU-03012; 0.777 in the assay with CUDC-101; 0.497 with JNK-9L; 0.909 with QS11; 0.958 with 5-Fluorouracil; 0.499 with RDEA119 (screen: GDSC drug entry 1014). Further, the AUC with AC220 stood at 0.985. For the same cell line, the IC50 with OSU-03012 is 9.79 µM; with CUDC-101, 2180 nM; with JNK-9L it was 313 nM; with QS11, over 10.2 µM; with 5-Fluorouracil it was over 32 µM; with RDEA119 (screen: GDSC drug entry 1014) it was 0.31 µM. Further, in the assay with AC220, the IC50 is over 1020 nM.
